# Reference: PubChem BioAssay AID485313 (National Center for Advancing Translational Sciences (NCATS), 2010)
# The whole screen tested about 320,000 compounds, of which about 7,600 (2.4%) were called active. The shares of active, inactive and inconclusive entries below differ from those in the screen. Calls follow the shape of the dose curve; as a rule, active = well fitted activation curve with a large enough effect; inconclusive = small, poorly fitted or top-dose-only effect; inactive = no such curve, though single readings can be large or run the other way. No potency is given beside an inconclusive call; the fits are too rough.
# Assay: qHTS Assay for NPC1 Promoter Activators; also: nearly all actives have a fitted effect of over 60% in size;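 as to activation: reporter is driven by a mutant NPC1 promoter; % of control where 0% means no effect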
# Conditions: Huh7 NPC1 promoter luciferase reporter, 24 h; series mostly up to 9.22 µM; activation: at the top concentration
# How it was run: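 Stable NPC1-promoter luciferase Huh7 line; cpd (DMSO) 24 h, 37 °C, 5% CO2; Amplite luciferase reagent 10 min RT; luminescence readout. qHTS format.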
# Potency is read from the fitted curve at half-maximal effect; tags tell the direction and shape of the fitted curve.
Structure (SMILES),Potency,activation
Cc1ccc(-n2nc3ccc(N)cc3n2)cc1Cl,"inconclusive [activator, single point]",
Cc1ccc(O)c(NC(=O)c2cc(-c3ccc(F)cc3)on2)c1,"inconclusive [activator, partial curve]",
Fc1cc(F)c2nc(Nc3nc4cc5c(cc4s3)OCO5)sc2c1,"inconclusive [activator, partial curve]",
Cc1ccc(C(=O)Nc2nc(=O)n(C(=O)c3ccccc3Cl)s2)cc1,"inconclusive [activator, partial curve]",
CN(C)S(=O)(=O)c1ccc(-c2csc(-c3cccnc3)n2)cc1,,inactive: -1.26%
COc1cccc(NC(=O)c2ccc3snnc3c2)c1,"inconclusive [activator, single point]",
COc1ccc(-c2cn(Cc3ccc(C(N)=O)cc3)c(-c3ccncc3)n2)cc1,active: 3.16 µM,
Cc1cc(C(=O)CN2CC(C)OC(C)C2)c(C)n1-c1ccccc1 (stereo not given),"inconclusive [activator, partial curve]",
Cc1ccc(NC(=O)c2ccc(Br)o2)cc1S(=O)(=O)N(C)C,"inconclusive [activator, partial curve]",
O=C(COC(=O)CCC1CCCC1)Nc1ccc(F)cc1,,inactive: -0.827%
NC(=O)c1ccccc1NC(=O)CN1CCN(Cc2ccccc2)CC1,,inactive: -0.61%
CCCNC(=O)c1ccc(-c2nc3ccccc3s2)s1,"inconclusive [activator, partial curve, poor fit]",
Nc1c(C(=O)c2ccc(Cl)cc2)sc2nc3c(cc12)CCC3,"inconclusive [activator, partial curve]",
CN(C)c1ccc(/C=C2\SC(N3CCCCC3)=NC2=O)cc1,"inconclusive [activator, single point]",
Oc1ccccc1-c1cc(-c2ccccc2)no1,active: 5.62 µM,
O=C(CCCCl)Oc1ccc2cc(-c3ccc4ccccc4n3)c(=O)oc2c1,"inconclusive [activator, single point]",
Cc1ccc(NC(=O)c2ccccn2)c(Br)c1,"inconclusive [activator, single point]",
CCN(CC(=O)Nc1c(F)cccc1F)C(=O)c1cc([N+](=O)[O-])ccc1N1CCOCC1,,inactive: -0.332%
COc1ccc2nc(NC(=O)CSc3n[nH]c(N)n3)sc2c1,"inconclusive [activator, single point]",
COc1cc(Cl)ccc1OCc1cc(C(=O)NCc2cc(C(C)C)no2)no1,"inconclusive [activator, single point]",
CC(=O)Nc1ccc(C(=O)NCCc2ccccc2)cc1,"inconclusive [activator, partial curve]",
COc1ccc(NC(=O)Nc2cccc(C)n2)cc1,"inconclusive [activator, single point]",
CC(C)(C)c1cc(NC(=O)C2CCCO2)no1 (stereo not given),"inconclusive [activator, single point]",
CC(OC(=O)c1ccc(O)cc1)C(=O)Nc1nc(-c2ccccc2)cs1 (stereo not given),,inactive: 13.1%
COc1cnn(-c2ccc(C)cc2)c(=O)c1SCc1ccccc1,"inconclusive [activator, partial curve]",

Structure (SMILES),Potency,activation
C/C(=N\NC(=O)c1cccs1)c1ccc2c(c1)OCO2,"inconclusive [activator, partial curve]",
Cc1ccc2c(c1)COc1c3ccc(C(=O)NCC4CC4)cc3nn1-2,active: 1.26 µM,
FC(F)(F)c1cc(-c2ccc3c(c2)OCO3)nc(NCc2ccco2)n1,"inconclusive [activator, single point]",
O=C(Nc1ccc2ccccc2c1)c1cccc([N+](=O)[O-])c1,"inconclusive [activator, single point]",
CCOC(=O)c1cc(CC)sc1NC(=O)CC1Sc2ccc(C(F)(F)F)cc2NC1=O (stereo not given),,inactive: -8.69%
CC(C)OC(=O)c1ccc(NC(=O)C2C3CC4OC(=O)C2C4C3)cc1 (stereo not given),"inconclusive [activator, partial curve]",
CC(C)(C)c1nn(-c2ccccc2)c2[nH]c(=O)c(C=O)cc12,,inactive: 1.33%
CCOC(=O)c1sc2nc(NC(=O)C(C)(C)C)sc2c1C,active: 0.891 µM,
COc1cccc(C2Nc3ccccc3NC3=C2C(=O)CC(C)(C)C3)c1 (stereo not given),"inconclusive [activator, single point]",
COc1ccc(NCc2cc3cc(OC)ccc3[nH]c2=O)cc1,"inconclusive [activator, single point]",
COc1cc2nc3c4ccccc4n(CC#N)c3nc2cc1OC,"inconclusive [activator, single point]",
CCCCCc1ccc(-c2ccc(C(=O)O)cc2)nc1,"inconclusive [activator, partial curve]",
O=C(Nc1cccc(Br)c1)c1ccc(OC2CSC2)cc1,"inconclusive [activator, single point]",
NNC(=O)c1cccc(COc2cccc(Br)c2)c1,"inconclusive [activator, partial curve]",
COC(=O)c1ccc(-c2ccc(/C=N/NC(=O)Cc3nnc(N)s3)o2)cc1,active: 4.47 µM,
Cc1cccc(Cn2ccc(NC(=O)c3ccc4c(c3)OCO4)n2)c1,,inactive: -1.11%
O=C(CSCc1ccccc1)N1CCN(c2ccccc2)CC1,"inconclusive [activator, partial curve]",
CCc1ccc(OCc2ccc(C(=O)NCc3ccccn3)o2)cc1,"inconclusive [activator, partial curve]",
Cc1ccsc1/C=N/NC(=O)C(N)=O,,inactive: 0.596%
CC(=O)NCCc1nc2cc(NC(=O)c3ccc([N+](=O)[O-])cc3)ccc2n1C,"inconclusive [activator, partial curve]",
CCOC(=O)c1c(NC(=O)CSc2cccc[n+]2[O-])sc(C(=O)Nc2ccccc2)c1C,"inconclusive [activator, single point]",
CCOC(=O)c1cc2c(C)n(-c3ccc(C)cc3)c(C)c2ccc1=O,"inconclusive [activator, partial curve]",
CCOc1ccc(C2C(C(=O)Nc3ccccc3)=C(C)N=c3s/c(=C/c4cccc(OCC(=O)O)c4)c(=O)n32)cc1 (stereo not given),,inactive: 1.83%
CC(=O)Nc1ccc(SCC(=O)c2cc(C)n(-c3ccccc3F)c2C)cc1,"inconclusive [activator, full curve]",
O=C(NC1=NCCS1)c1cccc(NC(=O)c2ccco2)c1,,inactive: 11.2%

Structure (SMILES),Potency,activation
COc1ccc(C)cc1NC(=O)CNC(=O)[C@@H]1Cc2ccccc2CN1,,inactive: 1.37%
c1ccc(-c2onc(-c3ccco3)c2-c2ccc3c(c2)OCO3)cc1,,inactive: -3.45%
COc1ccc(OCc2cc(C(=O)NCc3cccc(C)n3)no2)c(Cl)c1,"inconclusive [activator, single point]",
Cc1ccc(NC(=O)c2ccc(CSc3nnnn3C)cc2)cc1,active: 2 µM,
CC1CC(Nc2ccccc2)c2ccccc2N1C(=O)c1cccnc1 (stereo not given),,inactive: -1.66%
CC(Oc1ccc(Br)cc1)C(=O)Nc1ccncc1 (stereo not given),,inactive: -4.39%
O=C(Nc1ccc(CN2CCOCC2)cc1)c1ccc(Cl)cc1,"inconclusive [activator, partial curve]",
Cc1cccc(Nc2nc(-c3ccccn3)cs2)n1,active: 1.26 µM,
COc1ccc(Cc2nc(-c3cccc(C)c3)no2)cc1,"inconclusive [activator, single point]",
CCOC(=O)CSc1nc2ccsc2c(=O)[nH]1,,inactive: 0.812%
COc1ccc2nc(SCc3cccc(C)c3)nc(C)c2c1,"inconclusive [activator, partial curve]",
O=C(Nc1cccc(Cl)c1)N1CCN(Cc2ccccc2)CC1,"inconclusive [activator, partial curve]",
Clc1ccc(-c2nnc(N3CCCC3)nn2)cc1,"inconclusive [activator, partial curve]",
CN(C)c1ccc(C(=S)NC2CCCCC2)cc1,active: 3.16 µM,
Cc1cccc(Nc2nc3c(s2)CCCC3)c1,"inconclusive [activator, single point]",
Cc1nnc(NC(=O)CCC(=O)N2CCN(CCOc3cccc4ccccc34)CC2)s1,,inactive: -0.65%
Cc1cc(C(=O)Nc2sc(C)c(-c3ccc(F)cc3)c2C(N)=O)no1,active: 3.16 µM,
CC(C)(C)c1csc(NC(=O)c2ccc(Cl)s2)n1,"inconclusive [activator, partial curve]",
CC1CCN(c2ccc(-c3cccs3)nn2)CC1,"inconclusive [activator, partial curve, poor fit]",
COc1ccc(C2CC(O)(c3ccccc3)Oc3c(C)ccc(C)c32)cc1 (stereo not given),"inconclusive [activator, single point]",
CC(C)c1ccc(-c2cc(C(=O)NN3CCN(C)CC3)c3ccccc3n2)cc1,"inconclusive [activator, partial curve]",
COc1ccccc1NC(=O)C[n+]1ccccc1C,,inactive: -1.95%
N#Cc1ccc(CN2CCN(C(=O)CC(NC(=O)c3ccccc3)c3ccccc3)CC2)cc1 (stereo not given),,inactive: -4.33%
O=C(CSc1nnnn1-c1ccc(Cl)cc1)NC(=O)Nc1ccc2c(c1)OCCO2,"inconclusive [activator, single point]",
CCCCCOc1ccc(OC(=O)c2ccncc2)cc1,"inconclusive [activator, partial curve]",
